{"source": "paper PMC12095047", "about": "“Transport of phenoxyacetic acid herbicides by PIN-FORMED auxin transporters” (Nature Plants, 2025)", "format_in_all_cases": "biochemical", "settings_in_all_cases": "individual sensors", "key": {"A. thaliana PIN8": {"target": "T1, A. thaliana PIN8 (Arabidopsis thaliana, UniProt Q9LFP6)", "T1 construct": "made in house", "T1 sequence (Q9LFP6 1-367)": "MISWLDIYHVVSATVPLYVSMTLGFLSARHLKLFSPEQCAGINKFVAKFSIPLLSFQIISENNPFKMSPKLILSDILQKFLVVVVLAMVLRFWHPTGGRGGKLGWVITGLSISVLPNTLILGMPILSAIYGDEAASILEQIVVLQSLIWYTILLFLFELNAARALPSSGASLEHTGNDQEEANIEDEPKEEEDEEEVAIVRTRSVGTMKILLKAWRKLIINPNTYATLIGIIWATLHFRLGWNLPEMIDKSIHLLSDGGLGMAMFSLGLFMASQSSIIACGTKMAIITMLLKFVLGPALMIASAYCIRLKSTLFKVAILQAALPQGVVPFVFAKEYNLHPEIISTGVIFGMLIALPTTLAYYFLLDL", "assay": "SSM electrophysiology, peak current response on PIN8 proteoliposomes", "method": "(§1) SSM, using a SURFE2R N1 from Nanion Technologies, was conducted as described. In brief, soy polar lipid mix (38% phosphatidyl choline, 30% phosphatidyl ethanolamine, 18% phosphatidyl inositol, 7% phosphatidic acid and 7% other soy lipids) and 1-palmitoyl-2-oleoyl-sn-glycero-3-phosphocholin were purchased from Avanti. Liposomes were prepared in Ringer solution without Ca^2+ (115 mM NaCl, 2.5 mM KCl, 1 mM NaHCO3, 10 mM HEPES pH7.4, 1 mM MgCl2) and homogenized using a Lipsofast (Avestin) with a […]. Triton X-100 was added to the liposomes to a final concentration of 1% (v/v). Protein was added to liposomes to a calculated lipid-to-protein ratio (LPR) of 10 unless stated otherwise. The detergent was removed using 400 mg ml^−1 Bio Beads (BioRad) overnight at 4 °C in a rotary shaker. Proteoliposomes were frozen in liquid nitrogen and kept at −80 °C until use. Proteoliposomes were diluted 1:5 in Ringer solution without Ca^2+, sonicated five times and then applied to the sensors by centrifugation (30 min, 3,000 g, 4 °C). Non-activating buffer was Ringer solution without Ca^2+ as described unless specified otherwise, and activating buffer contained the substrate of interest. In most instances we used a single-solution exchange experiment. In this case proteoliposomes, immobilized on the supported membrane, are kept in non-activating buffer as specified. At the beginning of the experiment the non-activating buffer is replaced with fresh identical non-activating buffer, and after 1 s, activating buffer (same buffer containing substrate) is added. After another second, the buffer is replaced with non-activating buffer again. Current response is recorded throughout the entire 3 s. For competition or inhibition, the respective compound was present in non-activating and activating solutions. Each experiment was performed on at least two individual sensors. On each sensor each measurement consists of three technical replicates where the mean is calculated. KD values were determined as described previously. Briefly, the binding current induced by 100 µM NPA was recorded in the presence of different concentrations of the substrate under investigation ranging between 0 µM and 1,000 µM present in the activating solution and the non-activating solution (Extended Data Fig. 5b). […] The maximum peak current was then plotted as a function of the concentration of the substrate under investigation and plotted against the degree of inhibition and fitted with a one-site binding model using GraphPad Prism V10.4.1 The half maximal concentration corresponds to the KD of the substrate under investigation."}, "PIN8 I51Y": {"target": "T2, PIN8 I51Y (Arabidopsis thaliana, UniProt Q9LFP6, I51Y)", "T2 construct": "made in house", "T2 sequence (Q9LFP6 whole entry I51Y)": "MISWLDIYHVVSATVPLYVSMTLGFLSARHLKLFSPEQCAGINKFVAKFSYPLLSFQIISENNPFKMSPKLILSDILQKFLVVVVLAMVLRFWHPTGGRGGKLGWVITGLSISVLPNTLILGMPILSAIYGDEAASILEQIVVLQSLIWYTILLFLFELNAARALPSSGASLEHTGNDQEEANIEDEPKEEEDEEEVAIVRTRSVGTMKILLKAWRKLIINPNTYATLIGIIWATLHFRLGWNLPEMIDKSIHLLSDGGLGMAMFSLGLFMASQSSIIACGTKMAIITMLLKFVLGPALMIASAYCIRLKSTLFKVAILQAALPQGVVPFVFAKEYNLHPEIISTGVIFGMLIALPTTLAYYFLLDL", "method": "as §1\n(§2) The protocol for expression and purification of AtPIN8 protein (Uniprot: Q9LFP6) in lauryl maltose neopentyl glycol was described previously. All point mutants were generated using Q5 Site-Directed mutagenesis kit (New England Biolabs). The C-flat Holey Carbon grids (CF-1.2/1.3, Cu-300 mesh) were glow-discharged for 45 s at 15 mA in a GloQube Plus (Quorum). […] After 1 h of incubation on ice, the sample was centrifuged at 16,000 g for 15 min before blotting to remove precipitation. A drop of 4 µl of each sample was applied to the glow-discharged grids, blotted with a Vitrobot Mark IV (ThermoFisher Scientific) using the following settings (temperature 4 °C, 100% humidity, blot time of 4 s, blot force −1) and vitrified in liquid ethane."}, "PIN8 N223A": {"target": "T3, PIN8 N223A (Arabidopsis thaliana, UniProt Q9LFP6, N223A)", "T3 construct": "made in house", "T3 sequence (Q9LFP6 whole entry N223A)": "as the sequence (Q9LFP6 whole entry I51Y) above, with Y51I, N223A counted along it", "method": "as §1, §2"}, "PIN8 S266A": {"target": "T4, PIN8 S266A (Arabidopsis thaliana, UniProt Q9LFP6, S266A)", "T4 construct": "made in house", "T4 sequence (Q9LFP6 whole entry S266A)": "as the sequence (Q9LFP6 whole entry I51Y) above, with Y51I, S266A counted along it", "method": "as §1, §2"}, "PIN8 S55A/S146A": {"target": "T5, PIN8 S55A/S146A (Arabidopsis thaliana, UniProt Q9LFP6, S146A/S55A)", "T5 construct": "made in house", "T5 sequence (Q9LFP6 whole entry S55A/S146A)": "as the sequence (Q9LFP6 whole entry I51Y) above, with Y51I, S55A, S146A counted along it", "method": "as §1, §2"}, "PIN8 Y150F": {"target": "T6, PIN8 Y150F (Arabidopsis thaliana, UniProt Q9LFP6, Y150F)", "T6 construct": "made in house", "T6 sequence (Q9LFP6 whole entry Y150F)": "as the sequence (Q9LFP6 whole entry I51Y) above, with Y51I, Y150F counted along it", "method": "as §1, §2"}}, "note": "Values joined by “and” are separate entries in the source; they are usually repeats but may differ in a detail not shown here. Equal entries are not always repeated. Where two headings read alike, the source gives them in different places. Further values from the same series stand in other lists.", "data": [{"molecule": "O=C(O)COc1ccc(Cl)cc1Cl", "note": "[2,4-D, 2,4-dichlorophenoxyacetic acid]", "values": [{"measurement": "Peak current", "setting": "A. thaliana PIN8; 100 μM 2,4-D, absence of NPA", "value": 4.879, "unit": "nA"}, {"measurement": "Peak current", "setting": "A. thaliana PIN8; WT, 50 µM substrate", "value": 4.242, "unit": "nA"}, {"measurement": "Peak current", "setting": "A. thaliana PIN8; WT, 100 µM substrate", "value": "5.8107 nA and 5.441 nA and 6.314 nA"}, {"measurement": "Peak current", "setting": "A. thaliana PIN8; WT, 500 µM substrate", "value": "11.5238 nA and 10.82 nA and 12.6647 nA"}, {"measurement": "Peak current", "setting": "A. thaliana PIN8; WT, 1000 µM substrate", "value": "13.8362 nA and 12.7682 nA and 15.2635 nA"}, {"measurement": "Peak current", "setting": "PIN8 I51Y; 5 µM substrate", "value": "0.044 nA and 0.112 nA and 0.124 nA"}, {"measurement": "Peak current", "setting": "PIN8 I51Y; 20 µM substrate", "value": "0.046 nA and 0.09 nA and 0.062 nA"}, {"measurement": "Peak current", "setting": "PIN8 I51Y; 50 µM substrate", "value": "0.297 nA and 0.387 nA and 0.284 nA"}, {"measurement": "Peak current", "setting": "PIN8 I51Y; 100 µM substrate", "value": "0.568 nA and 0.749 nA and 0.55 nA"}, {"measurement": "Peak current", "setting": "PIN8 I51Y; 500 µM substrate", "value": "1.462 nA and 1.671 nA and 1.152 nA"}, {"measurement": "Peak current", "setting": "PIN8 I51Y; 1000 µM substrate", "value": "1.88 nA and 2.101 nA and 1.385 nA"}, {"measurement": "Peak current", "setting": "PIN8 I51Y; 2000 µM substrate", "value": "2.66 nA and 3.109 nA and 2.072 nA"}, {"measurement": "Peak current", "setting": "PIN8 N223A; 5 µM substrate", "value": "0.0124 nA and 0.01509 nA and 0.004723 nA"}, {"measurement": "Peak current", "setting": "PIN8 N223A; 20 µM substrate", "value": "0.01245 nA and 0.01298 nA and 0.01621 nA"}, {"measurement": "Peak current", "setting": "PIN8 N223A; 50 µM substrate", "value": "0.07483 nA and 0.06464 nA and 0.125 nA"}, {"measurement": "Peak current", "setting": "PIN8 N223A; 100 µM substrate", "value": "0.4074 nA and 0.3145 nA and 0.3925 nA"}, {"measurement": "Peak current", "setting": "PIN8 N223A; 500 µM substrate", "value": "1.183 nA and 1.575 nA and 1.146 nA"}, {"measurement": "Peak current", "setting": "PIN8 N223A; 1000 µM substrate", "value": "1.881 nA and 2.494 nA and 1.874 nA"}, {"measurement": "Peak current", "setting": "PIN8 N223A; 2000 µM substrate", "value": "3.084 nA and 4.009 nA and 3.08 nA"}, {"measurement": "Peak current", "setting": "PIN8 S266A; 5 µM substrate", "value": "0.2981 nA and 0.3384 nA and 0.2121 nA"}, {"measurement": "Peak current", "setting": "PIN8 S266A; 20 µM substrate", "value": "0.6514 nA and 0.6337 nA and 0.6283 nA"}, {"measurement": "Peak current", "setting": "PIN8 S266A; 50 µM substrate", "value": "1.218 nA and 1.225 nA and 1.216 nA"}, {"measurement": "Peak current", "setting": "PIN8 S266A; 100 µM substrate", "value": "1.902 nA and 2.022 nA and 1.988 nA"}, {"measurement": "Peak current", "setting": "PIN8 S266A; 500 µM substrate", "value": "4.265 nA and 4.394 nA and 4.521 nA"}, {"measurement": "Peak current", "setting": "PIN8 S266A; 1000 µM substrate", "value": "6.046 nA and 6.169 nA and 6.394 nA"}, {"measurement": "Peak current", "setting": "PIN8 S266A; 2000 µM substrate", "value": "8.685 nA and 8.632 nA and 9.161 nA"}, {"measurement": "Peak current", "setting": "PIN8 S55A/S146A; 5 µM substrate", "value": "1.091 nA and 1.269 nA and 1.096 nA and 1.233 nA"}, {"measurement": "Peak current", "setting": "PIN8 S55A/S146A; 20 µM substrate", "value": "2.74 nA and 3.317 nA and 2.687 nA and 3.21 nA"}, {"measurement": "Peak current", "setting": "PIN8 S55A/S146A; 50 µM substrate", "value": "4.576 nA and 5.447 nA and 4.222 nA and 5.281 nA"}, {"measurement": "Peak current", "setting": "PIN8 S55A/S146A; 100 µM substrate", "value": "5.821 nA and 7.052 nA and 5.494 nA and 7.009 nA"}, {"measurement": "Peak current", "setting": "PIN8 S55A/S146A; 500 µM substrate", "value": "7.699 nA and 9.912 nA and 7.438 nA and 10.224 nA"}, {"measurement": "Peak current", "setting": "PIN8 S55A/S146A; 1000 µM substrate", "value": "7.589 nA and 9.68 nA and 7.275 nA and 10.292 nA"}, {"measurement": "Peak current", "setting": "PIN8 S55A/S146A; 2000 µM substrate", "value": "7.252 nA and 9.015 nA and 6.538 nA and 9.462 nA"}, {"measurement": "Peak current", "setting": "PIN8 Y150F; 5 µM substrate", "value": "0.078 nA and 0.361 nA and 0.415 nA"}, {"measurement": "Peak current", "setting": "PIN8 Y150F; 20 µM substrate", "value": "0.249 nA and 0.273 nA and 0.378 nA"}, {"measurement": "Peak current", "setting": "PIN8 Y150F; 50 µM substrate", "value": "0.678 nA and 0.852 nA and 0.964 nA"}, {"measurement": "Peak current", "setting": "PIN8 Y150F; 100 µM substrate", "value": "1.158 nA and 1.269 nA and 1.466 nA"}, {"measurement": "Peak current", "setting": "PIN8 Y150F; 500 µM substrate", "value": "2.927 nA and 2.963 nA and 3.216 nA"}, {"measurement": "Peak current", "setting": "PIN8 Y150F; 1000 µM substrate", "value": "4.013 nA and 4.163 nA and 4.27 nA"}, {"measurement": "Peak current", "setting": "PIN8 Y150F; 2000 µM substrate", "value": "5.287 nA and 6.435 nA and 6.284 nA"}]}]}
